From PubChem BioAssay AID686979 (National Center for Advancing Translational Sciences (NCATS), 2013)
In all, about 420,000 compounds went through this assay and about 50,000 (12%) were called active. The shares of active, inactive and inconclusive entries below differ from those in the screen. Calls follow the shape of the dose curve; as a rule, active = well fitted inhibition curve with a large enough effect; inconclusive = small, poorly fitted or top-dose-only effect; inactive = flat fitted curve, though single readings scatter. Potencies of inconclusive entries are left out as doubtful fits. Where a SMILES comes first, the peptide text is derived from it. The star is where a group is joined. Boc = CC(C)(C)OC(=O)*

Test: qHTS for Inhibitors of human tyrosyl-DNA phosphodiesterase 1 (TDP1): qHTS in cells in presence of CPT; also: nearly all actives have a fitted effect of over 55% in size
Conditions: chicken DT40 Tdp1-/-;hTDP1 cells + 20 nM CPT, ATP luminescence, 48 h; activity change, negative = growth inhibition: at 46.2 µM (top of the series) unless noted
Summary of the method: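 Cell growth measured by CellTiter-Glo luminescence after a minimum 48 h, 37 C compound exposure with 20 nM CPT in Tdp1-knockout DT40 cells stably expressing hTDP1, seeded 400/well; qHTS titration format.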
% is scaled to controls: 0 for no effect and ±100 for the full control effect; potency is read from the fitted curve at half-maximal effect; tags tell the direction and shape of the fitted curve.

Row | SMILES | Potency | activity change, negative = growth inhibition
1 | COc1ccccc1-c1nnc(NC(C)=O)s1 | inactive | –
2 | CCC(C)C(NC(=O)C(C)NC(=O)CNC(=O)OC(C)(C)C)C(N)=O (stereo not drawn) (Boc-Gly-Ala-Ile-NH2; configuration not given here) | inconclusive [inhibitor, single point] | –
3 | COc1ccc(-c2nc3cc(NC(=O)COc4ccccc4C)ccc3o2)cc1 | inactive | –
4 | COc1cccc(C(NC(C)=O)c2nc(-c3ccc4ccccc4c3)cs2)c1 (configuration not stated) | active: 18.4 µM | –
5 | Cc1ccc(N2C(=O)C3C4C=CC(CC4)C3C2=O)cc1[N+](=O)[O-] (configuration not stated) | inactive | –
6 | COc1ccccc1NS(=O)(=O)c1cccc(C(=O)NCC(c2ccco2)N2CCCCC2)c1 (configuration not stated) | inconclusive [inhibitor, single point] | –
7 | CCc1cccc(C)c1NC(=O)CSc1nc2ccccc2nc1Cc1ccccc1 | inconclusive [inhibitor, single point] | –
8 | Cc1ccc(NC(=O)c2oc3ccc(S(=O)(=O)N4CCC5(CC4)OCCO5)cc3c2C)cc1Cl | inconclusive [inhibitor, single point] | –
9 | CCOc1ccc(NC(=S)N2CCN(CCN3C(=O)c4cccc5cccc(c45)C3=O)CC2)cc1 | inconclusive [inhibitor, single point] | –
10 | CCOc1cc(-c2nc(-c3ccccc3OC)no2)cc(OCC)c1OCC | inconclusive [inhibitor, partial curve] | –
11 | COCCN(Cc1ccco1)C(=O)C1CCCN(c2ncnc3c2nc2n3CCCCC2)C1 (configuration not stated) | inconclusive [inhibitor, single point] | –
12 | CC(/C=C/c1ccc2c(c1)OCO2)=N/NC(=O)c1cccnc1 | inactive | –
13 | C/C(=N\NC(=S)NCc1ccccc1)c1ccc(Br)cc1 | inconclusive [inhibitor, single point] | –
14 | O=C(Nc1ccccc1N1CCOCC1)c1ccc(N2CCOCC2)c([N+](=O)[O-])c1 | inconclusive [inhibitor, partial curve, poor fit] | –
15 | Cc1nnc(SCC(=O)N2CCN(c3ccccc3F)CC2)n1C1CC1 | inactive | –
16 | CNC(=O)NNC(=O)c1nc(-c2ccccc2)c(C)o1 | inactive | –
17 | Cc1ccc(-c2cc(-c3ccccc3Cl)c(C#N)c(N)n2)o1 | inconclusive [inhibitor, single point] | –
18 | Cc1cccc(N2CCN(C(=O)c3cc(=O)[nH]c4ccccc34)CC2)c1C | inconclusive [inhibitor, single point] | –
19 | COc1cccc(CNC(=O)CNC(=S)N(Cc2ccccc2)Cc2ccccc2F)c1 | inconclusive [inhibitor, single point] | –
20 | CNC(=O)CC1C(=O)N(c2ccc(F)cc2)C(=S)N1NC(=O)c1ccc(Br)cc1 (configuration not stated) | inactive | –
21 | Cc1ccc(C(c2nnnn2C2CCCCC2)N(C)C2CCCCC2)cc1 (configuration not stated) | active: 23.1 µM | –
22 | CCOC(=O)C1=C(COC(=O)CCOc2ccccc2)NC(=O)NC1C (configuration not stated) | active: 23.1 µM | –
23 | COc1ccc(C(CC(=O)Nc2ccc(Cl)cc2F)NC(=O)C(F)(F)F)cc1 (configuration not stated) | inconclusive [inhibitor, partial curve] | –
24 | O=S1(=O)N=C2CCCN2C(c2ccc(F)cc2)N1 (configuration not stated) | inactive | –

Row | SMILES | Potency | activity change, negative = growth inhibition
25 | CC1=NOC(=O)/C1=C/c1ccc(O)c(Br)c1 | inactive | –
26 | C/C(=N\NC(=O)c1ccc(N2CCCC2=O)cc1)c1ccncc1 | inactive | –
27 | COc1cc(C(c2c(C)[nH][nH]c2=O)c2c(C)[nH][nH]c2=O)ccc1OC(=O)c1ccccc1OC | inconclusive [inhibitor, single point] | –
28 | O=C(Nc1ccc(F)cc1)C1CCCN(C2=NS(=O)(=O)c3ccccc32)C1 (configuration not stated) | inactive | –
29 | COc1ccc2c(c1)[N+](C)(C)C(C)(C)C=C2C | inconclusive [inhibitor, single point] | –
30 | CSCCC(NC(=O)c1ccccc1Br)C(=O)N1CCN(C(C)=O)CC1 (configuration not stated) | inactive | –
31 | O=C1CC(Sc2ncccn2)C(=O)N1c1ccccc1C(F)(F)F (configuration not stated) | inconclusive [inhibitor, single point] | –
32 | CCS(=O)(=O)N1CCC(C(=O)c2ccc(Cl)cc2)CC1 | active: 20.6 µM | –
33 | COc1ccc(/C=C2\Oc3cc(OCC(=O)N4CCC[C@H]4C(=O)O)ccc3C2=O)cc1OC | inactive | –
34 | O=C1NC[C@H](Cc2ccc(O)cc2)N(CCc2cc(C(F)(F)F)cc(C(F)(F)F)c2)C1=O | inactive | –
35 | COc1ccccc1CN(C)C(=O)COC(=O)c1cc(C)oc1C | inactive | –
36 | COc1ccc(C2C(=O)N(C3CCCCC3)CC(=O)N2CC2COc3ccccc3O2)cc1 (configuration not stated) | inconclusive [inhibitor, partial curve] | –
37 | Cc1ccc(C(=O)NCCc2nnc3ccc(NCCCN4CCOCC4)nn23)cc1 | inactive | –
38 | O=C1c2cccc3cccc(c23)C(=O)N1CC1CCN(S(=O)(=O)c2ccccc2)CC1 | inactive | –
39 | COc1ccc(Nc2nn3c(=O)c4cc5c(cc4nc3s2)OCO5)c(OC)c1 | inconclusive [inhibitor, single point] | –
40 | CCOc1ccc2nc(NC(=O)c3cccc(-c4cc5ccccc5oc4=O)c3)sc2c1 | inconclusive [inhibitor, single point] | –
41 | CN(C)CCNCc1ccc(OC2CCCC2)cc1 | inconclusive [inhibitor, single point] | –
42 | COc1ccc(CNC(=O)C2CCC(=O)N(CC3CCCCC3)C2)cc1 (configuration not stated) | inconclusive [inhibitor, single point] | –
43 | Cc1ccc(Cl)cc1-n1nnc(-c2nc(-c3ccc4c(c3)OCO4)no2)c1C | – | inconclusive: -23.6% [inhibitor]
44 | O=C(Nc1c[nH]c(=O)[nH]c1=O)OCc1ccccc1 | inactive | –
45 | O=C1C2C3C=CC(CC3)C2C(=O)N1c1ccc2c(c1)OCO2 (configuration not stated) | inconclusive [inhibitor, partial curve] | –
46 | O=c1[nH]c(CN2CCN(c3ccc(O)cc3)CC2)nc2scc(-c3ccc(Cl)cc3)c12 | active: 3.66 µM | –
47 | S=C(Nc1ccccc1)N1CCC(C2CCN(C(=S)Nc3ccccc3)CC2)CC1 | inactive | –
48 | CC1CCCCC1NC(=O)/C(C#N)=C/C=C/c1ccccc1[N+](=O)[O-] (configuration not stated) | active: 10.3 µM | –

Row | SMILES | Potency | activity change, negative = growth inhibition
49 | O=C1N=C(N2CCOCC2)S/C1=C/c1ccc(-c2ccc(F)cc2)o1 | inconclusive [inhibitor, single point] | –
50 | Cc1ccc(C(O)c2ncc(-c3cccc(C(F)(F)F)c3)[nH]2)cc1 (configuration not stated) | inconclusive [inhibitor, single point] | –
51 | COc1ccc(CN2CCC[C@]3(N[C@H](c4ccc(C(F)(F)F)cc4)[C@@H]4C(=O)N(C)C(=O)[C@@H]43)C2=O)cc1 | active: 23.1 µM | –
52 | COc1ccccc1CNC(=O)CN(c1ccc(C)cc1)S(=O)(=O)c1c(C)nn(C)c1C | inactive | –
53 | Cc1ccc(N2CC(C(=O)Nc3nnc(SCC(N)=O)s3)CC2=O)cc1C (configuration not stated) | inactive | –
54 | COC(=O)CN1C(=O)C(O)(CC(=O)c2ccc(C)o2)c2ccccc21 (configuration not stated) | inconclusive [inhibitor, single point] | –
55 | CCn1c(=O)c2sccc2n2c(CCCC(=O)N3CCN(c4ccccn4)CC3)nnc12 | inconclusive [inhibitor, single point] | –
56 | COc1ccccc1-c1csc(C(O)c2ccc(F)cc2)n1 (configuration not stated) | inconclusive [inhibitor, single point] | –
57 | CCOc1ccc(C(=O)NC(=S)NCc2cccnc2)cc1[N+](=O)[O-] | inconclusive [inhibitor, single point] | –
58 | CC(C)Cn1c(-c2ccc(Cl)cc2)cnc1SCC(=O)N1CCOCC1 | inconclusive [inhibitor, single point] | –
59 | c1ccc(NNC2=NCCCCC2)cc1 | inactive | –
60 | CC(C)(C)c1ccc(S(=O)(=O)N2CCN(CC(O)COCC3CCCO3)CC2)cc1 (configuration not stated) | inactive | –
61 | COc1ccccc1NC(=O)N(C)C[C@H]1Oc2ncc(Br)cc2C(=O)N([C@H](C)CO)C[C@H]1C | inactive | –
62 | CC(=O)NC1=NN(C(C)=O)C(C)(c2ccc(Br)cc2)S1 (configuration not stated) | inactive | –
63 | CCOc1ccc(/C=C/C(=O)Nc2ccc3nc(N(CC)CC)cc(C)c3c2)cc1OC | active: 5.17 µM | –
64 | Cc1ccc(S(=O)(=O)N2C[C@H]3N(C(=O)OC(C)C)N(C(=O)OC(C)C)C[C@H](OC(=O)NCc4ccccc4F)[C@@]3(O)C2)cc1 | inconclusive [inhibitor, single point] | –
65 | CCCNC(=O)C1CC(=O)N(c2ccc(OCC(=O)Nc3cccc(C)c3C)cc2)C1 (configuration not stated) | inconclusive [inhibitor, single point] | –
66 | Cc1ccc(C(=O)Nc2nc(=O)n(C(=O)c3ccccc3C)s2)cc1 | active: 11.6 µM | –
67 | Cc1ccc(S(=O)(=O)Nc2ccccc2CNc2cccc(C)n2)cc1 | inconclusive [inhibitor, single point] | –
68 | CCc1ccc(C2c3c(-c4ccccc4O)n[nH]c3C(=O)N2Cc2cccnc2)cc1 (configuration not stated) | active: 16.4 µM | –
69 | COc1ccc(C2c3ccc(O)cc3Oc3ncn4nc(-c5ccccn5)nc4c32)cc1 (configuration not stated) | inactive | –
70 | COc1cc(C(=O)NCC(c2ccc(F)cc2)N2CCOCC2)ccc1OCc1ccccc1Cl (configuration not stated) | inconclusive [inhibitor, single point] | –
71 | CCOc1ccc(C(C)NC(=S)NC2CCCCC2)cc1 (configuration not stated) | inconclusive [inhibitor, single point] | –
72 | COC(=O)/C=C1/SC(=NC(=O)c2ccccc2)NC1=O | inconclusive [inhibitor, single point] | –
